Assay results: PubChem BioAssay AID662 (National Center for Advancing Translational Sciences (NCATS), 2007)
Screen size: about 71,000 compounds; about 1,800 (2.5%) were called active. This list was built around the results that the source calls inconclusive (neither active nor inactive); the mix of calls is not that of the screen. Calls follow the shape of the dose curve; as a rule, active = well fitted activation curve with a large enough effect in the signal ratio, with a control signal flat (not every such curve was filed as active); inconclusive = small, poorly fitted or top-dose-only effect, or effect the other way, or a change in a side signal; inactive = flat fitted curve, though single readings scatter; the % refers to the signal ratio. Potencies of inconclusive entries are doubtful fits and often do not repeat.

Test: Cell signaling CRE-BLA (Fsk stim); as to activity change, negative = inhibition: % of control where 0% means no effect
Conditions: CHO CRE-bla reporter (cAMP response element driving beta-lactamase), forskolin EC10, beta-lactamase ratio; activity change, negative = inhibition: at 38.2 µM (top of the series) unless noted
Method in brief: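 Cells were plated overnight at 37 °C, exposed to compound titrations plus EC10 NKH 477 for 3 h, then given CCF4 dye for 2 h at room temperature. Blue/green (460/530 nm) ratio was converted to %Activity and AC50 values calculated.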
Potency is read from the fitted curve at half-maximal effect; tags tell the direction and shape of the fitted curve.

Structure (SMILES)	activity change, negative = inhibition	Potency
CC(CCCC(C)(C)O)NCCO (centres undefined)	inactive	–
CCC(C)NC(=O)Cn1cccc1C(=O)c1ccccc1 (centres undefined)	inconclusive: 1%	–
CCOC(=O)c1cc(C)n(-c2c(C)n(C)n(-c3ccccc3)c2=O)c1C	inconclusive: -14.5%	–
CCOCCCNC(=O)C1CCN(S(=O)(=O)c2c(C)noc2/C=C\c2ccc(OC)cc2)CC1	inconclusive: 18.9%	–
O=C(NCc1ccncc1)c1ccc(Br)cc1	inconclusive: 12.6% [at 7.6 µM]	–
CCOC(=O)C1CCN(CC(=O)N2C(C)CCCC2C)CC1 (centres undefined)	inactive	–
COC(=O)C1=C(C)N=c2s/c(=C/c3cccs3)c(=O)n2C1c1cccs1 (centres undefined)	inactive	–
CC(C)N(Cc1ccccc1)S(=O)(=O)c1n[nH]c(C(C)(C)C)n1	inactive: -13.4% [at 7.6 µM]	–
COc1ccc(-n2nc3cc(C)c(N)c(Br)c3n2)cc1	–	inconclusive: 15.8 µM [rising, single point]
O=C(NC1CCCCC1)C(c1ccco1)N(Cc1cccs1)C(=O)Cn1nnc2ccccc21 (centres undefined)	inconclusive: 8.15%	–
CCCCCn1c(S(=O)(=O)O)nc2ccccc21	inconclusive: 11.3%	–
COC(=O)C1=C(N)Oc2cc(C)n(CC3CCCO3)c(=O)c2C1c1ccccc1OC (centres undefined)	inactive	–
Cc1ccc(C2CC(=O)N3CN(c4ccc(Br)cc4)CSC3=C2C#N)o1 (centres undefined)	inconclusive: -26.8%	–
Cc1cc(NC(=O)c2sccc2C)n(-c2cccc(Cl)c2)n1	–	inconclusive: 6.31 µM [rising, partial curve]
Cc1cc(C)n(CC(O)COCc2ccccc2)n1 (centres undefined)	–	inconclusive: 3.16 µM [falling, single point]
CC(C)Cn1c(=O)c2c(nc3n2CCCN3CCc2ccccc2)n(C)c1=O	–	inconclusive: 3.16 µM [rising, partial curve]
O=C1CC(c2ccccc2)Cc2nc(NCc3ccco3)ncc21 (centres undefined)	inconclusive: -17.1%	–
COC(=O)Cc1c(C)c2c(O)cc(C)cc2oc1=O	–	inconclusive: 2 µM [rising, partial curve, poor fit]
Cc1nnc(NC(=O)c2ccccc2F)s1	inactive	–
CN1C=CC2=C(C#N)C(N)C(C#N)(C#N)C(c3ccccc3)C2C1 (centres undefined)	inactive	–
Cn1cnnc1SCC(=O)NCc1cccc(C(F)(F)F)c1	inactive	–
Cc1cnc(CNc2ncnc3ccc(-c4ccccc4Cl)cc23)cn1	inconclusive: 14.5%	–
CCS(=O)(=O)C(=C(Nc1ccc(OC)cc1)Nc1ccc(OC)cc1)S(=O)(=O)CC	inconclusive: 27.6% [at 7.6 µM]	–
Cc1ccc(NC(=O)Cn2nnc(C(=O)Nc3ccc(C)c(C)c3)c2N)cc1	inconclusive: -13.8%	–
